The whole screen tested about 420,000 compounds, of which about 50,000 (12%) were called active. Inconclusive means that the source gave no clear call. Such entries were picked first, then a sample of the others. Calls come from the whole dose curve; as a rule, active = well fitted inhibition curve with a large enough effect; inconclusive = small, poorly fitted or top-dose-only effect; inactive = flat fitted curve, though single readings scatter. Potencies of inconclusive entries are left out as doubtful fits.
Assay: qHTS for Inhibitors of human tyrosyl-DNA phosphodiesterase 1 (TDP1): qHTS in cells in presence of CPT; note: nearly all actives have a fitted effect of over 55% in size
Conditions: chicken DT40 Tdp1-/-;hTDP1 cells + 20 nM CPT, ATP luminescence, 48 h; activity change, negative = growth inhibition: at 46.2 µM (top of the series)
Method in brief: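 Cell growth measured by CellTiter-Glo luminescence after a minimum 48 h, 37 C compound exposure with 20 nM CPT in Tdp1-knockout DT40 cells stably expressing hTDP1, seeded 400/well; qHTS titration format.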
% is set by controls: 0 for no effect and ±100 for the full control effect; potency is the fitted concentration of half-maximal effect; tags give direction and shape of the fitted curve.

SMILES	Potency	activity change, negative = growth inhibition
CC1CCN(C(=O)/C(=C\c2cccs2)NC(=O)c2ccccc2)CC1	inactive	–
O=C(CCCN1C(=O)/C(=C/c2cccs2)SC1=S)NNC(=O)c1ccc(F)cc1	active: 25.9 µM	–
CC1(C)CC(c2nc(-c3ccc(Br)cc3)cs2)CCS1 (stereo not given)	inconclusive [inhibitor, single point]	–
COc1ccc(CN2CCNC(=O)C2CC(=O)NCc2cn[nH]c2-c2ccccc2)c(F)c1 (stereo not given)	inconclusive [inhibitor, partial curve]	–
CCCOc1cccc(C(=O)Nc2ccc(-c3cc4ccccc4oc3=O)c(C)c2)c1	inconclusive [inhibitor, single point]	–
CCOC(=O)c1ccc(NC2=CC(c3ccc(F)cc3)N(c3ccc(C(=O)OCC)cc3)C2=O)cc1 (stereo not given)	active: 16.4 µM	–
Cc1cccc(C)c1NC(=O)CCS(=O)(=O)c1cccc2nonc12	inactive	–
COc1ccc(C2=NN(C(=O)CCC(=O)O)C(c3ccc(Br)cc3)C2)cc1 (stereo not given)	inactive	–
CN1CCCC(C)(C(=O)Nc2cccc(Oc3ccccc3)c2)C1 (stereo not given)	inconclusive [inhibitor, single point]	–
Cc1c(NC(=O)c2ccc(Br)o2)cccc1-c1nc2ccccc2o1	active: 25.9 µM	–
COc1ccccc1NC(=O)c1c(NC(=O)c2ccco2)sc2c1CCC2	inconclusive [inhibitor, partial curve, poor fit]	–
O=C(C[n+]1cccc(Br)c1)c1ccc(I)cc1	active: 2.24 µM	–
Cc1cc(CN2CCCCC2C(=O)Nc2ccc(Oc3cccnc3)cc2)oc1C (stereo not given)	inconclusive [inhibitor, partial curve, poor fit]	–
COc1ccc(C(=O)C(CN2CCOCC2)c2ccccc2)cc1 (stereo not given)	active: 2.91 µM	–
FC(F)(F)c1ccc(Oc2ccc(Cl)cc2Br)nc1	inconclusive [inhibitor, single point]	–
CC(=O)Nc1ccc(Nc2ncnc3c2c(-c2ccccc2)cn3-c2ccc(C)c(Cl)c2)cc1	active: 9.2 µM	–
O=C(/C(=N/N=C/c1ccc(O)c(O)c1O)c1ccccc1)c1ccccc1	inconclusive [inhibitor, single point]	–
Cc1ccc(S(=O)(=O)c2cc3c(=O)n4ccccc4nc3n(C3CCCCC3)c2=N)cc1	inconclusive [inhibitor, single point]	–
COc1ccc(C)cc1-n1nnnc1SCC(=O)c1ccc2c(c1)OCCO2	active: 18.4 µM	–
COc1ccc(NC(=S)N(CCN2CCOCC2)Cc2cc3cc4c(cc3[nH]c2=O)OCCO4)cc1	inconclusive [inhibitor, single point]	–
Cc1ccccc1Cn1c(SCc2ccc(C(=O)NC3CCCC3)cc2)nc2ccncc21	inconclusive [inhibitor, partial curve, poor fit]	–
C=CCN1CCc2cc(O)c(O)cc2C(c2ccccc2)C1 (stereo not given)	inactive	–
Cc1oc(-c2cccc(Cl)c2)nc1CN1CCC(C(=O)NCCCN2CCCC2=O)CC1	inactive	–
CSc1ccccc1NC(=O)CN(C)C(=O)Cn1c(=O)oc2ccccc21	inactive	–

SMILES	Potency	activity change, negative = growth inhibition
CCN1CCN(c2nc(-c3ccccc3)nc3ccccc23)CC1	inconclusive [inhibitor, single point]	–
Cc1ccc(N/C=C(\C#N)S(=O)(=O)c2ccccc2)cc1	inactive	–
CCN1CCN(c2ccc(NC(=O)c3cc(OC)c(OC)c(OC)c3)cc2)CC1	inactive	–
CCNC(=S)N(Cc1cc2cc(C)ccc2[nH]c1=O)C1CCCC1	inconclusive [inhibitor, partial curve]	–
O=C1NC2(CCCC2)N=C1c1ccc(Cl)cc1	inactive	–
COc1ccccc1/C=C\C=N\n1c(-c2ccc(Cl)cc2)n[nH]c1=S	inconclusive [inhibitor, single point]	–
c1ccc(COc2ccc(OCCCCN3CCCC3)cc2)cc1	inconclusive [inhibitor, single point]	–
CCc1cccc(C)c1NC(=O)C1C2CCC(O2)C1C(=O)O (stereo not given)	inactive	–
COc1ccc(NC(=O)c2ccccc2)cc1	inconclusive [inhibitor, single point]	–
COc1cc(C2NC(=O)c3c(sc4c3CCN(C)C4)N2)ccc1OC(=O)c1ccccc1 (stereo not given)	inconclusive [inhibitor, single point]	–
C#Cc1ccc(NC(=O)C2(C)CCN2C(=O)c2cc(C)n(C)n2)cc1 (stereo not given)	inconclusive [inhibitor, single point]	–
CCOC(=O)c1ccc(NC(=S)N2CCN(c3ccccn3)CC2)cc1	inactive	–
Cc1[nH]c(=O)c(C#N)c(C)c1CCC(=O)N(C)CC(=O)Nc1ccc(Cl)c(Cl)c1	inconclusive [inhibitor, single point]	–
COc1ccc(C(=O)N(C)CC2CCN(CCc3cccc(C(F)(F)F)c3)CC2)cc1C	inconclusive [inhibitor, single point]	–
C/C(CC(=O)Nc1ccc(Cl)c(C(F)(F)F)c1)=N\NC(=O)c1cnccn1	inconclusive [inhibitor, single point]	–
Cc1ccc(OCc2nc(C#N)c(N3CCCC3)o2)cc1	inconclusive [inhibitor, single point]	–
O=C(NCCc1ccccc1)C1Cc2c(-c3ccc(Cl)cc3)ccnc2O1 (stereo not given)	inconclusive [inhibitor, single point]	–
Cn1c(=O)c2c(nc(CN3CCN(Cc4ccccc4)CC3)n2Cc2ccc(F)cc2)n(C)c1=O	inconclusive [inhibitor, single point]	–
COCCN(C(=O)CCC(=O)Nc1cc(C)on1)C(C(=O)NC1CCCC1)c1ccc(C(C)C)cc1 (stereo not given)	inactive	–
COc1cccc(NC(=O)CSc2nc3c([nH]c4ccccc43)c(=O)n2-c2cccc(Cl)c2)c1	inconclusive [inhibitor, single point]	–
CCc1nn2cc(C(=O)c3cc(Cl)ccc3O)cnc2c1-c1ccc(F)cc1	inconclusive [inhibitor, single point]	–
COc1ccccc1Nc1nnc(SCc2cc(=O)n3cc(C)ccc3n2)s1	inconclusive [inhibitor, single point]	–
CCOC(=O)c1c(C)[nH]c(C(=O)OC(C(=O)N(C)C)c2ccccc2)c1C (stereo not given)	active: 10 µM	–
Cc1ccc(S(=O)(=O)Cn2nnnc2C(c2ccc(F)cc2)N2CCCCC2)cc1 (stereo not given)	inconclusive [inhibitor, single point]	–

SMILES	Potency	activity change, negative = growth inhibition
CCCNC(=S)N1CCC(C(=O)c2ccc3c(c2)OCCO3)CC1	inconclusive [inhibitor, single point]	–
COc1ccc(CNC(=O)C2CCCN2CCc2ccccc2)cc1OC (stereo not given)	inconclusive [inhibitor, single point]	–
Oc1ccc(-c2nc3ccccc3s2)cc1	–	inconclusive: -34.5% [inhibitor]
Cc1ccccc1CSCC(=O)c1c(N)n(CC(C)C)c(=O)n(C)c1=O	inconclusive [inhibitor, single point]	–
CCc1ccccc1N(CC(=O)N1CCN(c2ccccc2F)CC1)S(C)(=O)=O	inconclusive [inhibitor, single point]	–
O=C(/C=C/c1ccccc1)c1ccc(O)cc1	inconclusive [inhibitor, single point]	–
CCOC(=O)c1sc2ncnc(NCc3ccco3)c2c1C	active: 18.4 µM	–
CN1CCN(C(=O)c2cccc(COc3cc(Cl)ccc3Cl)c2)CC1	inconclusive [inhibitor, single point]	–
O=C(Nc1ccc2c(c1)OCO2)[C@@H]1CCCN1S(=O)(=O)c1cccc2cccnc12	inconclusive [inhibitor, partial curve]	–
Cc1cc(C)n(-c2nnc(N3CCN(c4ccccc4)CC3)nn2)n1	inconclusive [inhibitor, single point]	–
O=C(Nc1ccc(Cl)c(C(F)(F)F)c1)C1Cc2c(-c3ccc4c(c3)OCO4)ccnc2O1 (stereo not given)	active: 23.1 µM	–
CCOC(=O)c1ccc(NC(=O)CSc2nc(C)c(Cc3ccccc3)c(=O)[nH]2)cc1	inconclusive [inhibitor, single point]	–
CC(C)c1ccc(NC(=O)c2cccc(Br)c2)cc1	inactive	–
CCc1cccc(CC)c1N(COC)C(=O)Cn1c(C)nc2ccccc21	inconclusive [inhibitor, single point]	–
CCCN1C2CCCC1CC(NC(=S)Nc1cc(C)ccc1C)C2 (stereo not given)	inconclusive [inhibitor, single point]	–
Clc1ccc2c(NCc3ccco3)ncnc2c1	active: 14.6 µM	–
CSc1cccc(NC(=S)NN(C)C)c1	inconclusive [inhibitor, single point]	–
Cc1ccc(-n2nc(C)c3c(C)cc(=O)n(CC(=O)NC(C)C)c32)cc1	inactive	–
COc1ccc2c(c1)CCc1sc(NC(=O)c3ccco3)nc1-2	inconclusive [inhibitor, single point]	–
Cc1nc2c(F)c(F)c(C(F)(F)F)c(F)c2[nH]1	inconclusive [inhibitor, single point]	–
CCCC(=O)Nc1cccc(Oc2nc(C)cc(C)c2C#N)c1	inconclusive [inhibitor, full curve, poor fit]	–
O=C(CN1CCCc2ccccc21)Nc1ccc(F)cc1[N+](=O)[O-]	inconclusive [inhibitor, single point]	–
